# According to the supplement of paper PMC4466236:
# The full ranking holds about 33,000 sequences; the median of “E-score (dimensionless, -0.5 to 0.5)” is about -0.058, and the highest 2% start at about 0.35. The list shows a part of the results.
# Tested on: MvaT
# Assay: PBM 8-mer E-score (mean of HK and ME arrays) (E-score (dimensionless, -0.5 to 0.5)); higher = stronger relative binding preference; most listed sequences are background and not binding sites
# Method: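 Protein binding microarray: GST-tagged full-length MvaT (P. aeruginosa PAO1) bound to two universal double-stranded 60-mer arrays (ME and HK), each with a constant 25-mer primer and a variable 35-mer region covering all 8-mers. The 8-mer E-score (rank-based, range -0.5 to 0.5, >0.45 = specific binding) is the mean of the two arrays.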
row,Sequence,PBM 8-mer E-score
1,AGATTAAC,0.173
2,ATACCAGG,-0.0238
3,CCACGGGC,-0.301
4,AACAGGAA,0.107
5,CCAGTCCA,-0.13
6,CCCAAATC,-0.0884
7,CATCTGTC,-0.123
8,AGCTGCAG,-0.111
9,GTTTTAGA,0.142
10,CCTAAAGG,-0.187
11,CCAGGATC,-0.19
12,ATCACTCG,0.0455
13,AGCAGGTC,-0.147
14,AGACTGCA,-0.0965
15,CACTAGGA,-0.133
16,TATTGGCA,0.277
17,AAGCACTA,0.0275
18,TCGCCCCA,-0.0873
19,AACTACGA,0.138
20,GCTCCTTA,-0.053
21,CTAACACA,0.105
22,CCCGAGCC,-0.268
23,CCACTACC,-0.221
24,GGAGCGCC,-0.354
25,CCTCCGAC,-0.219

row,Sequence,PBM 8-mer E-score
1,CTATTATA,0.44
2,ATGTTAGA,0.236
3,CAACTTTC,0.243
4,GAGAGGTA,-0.112
5,CGGTGCAG,-0.202
6,ACCTCTAC,-0.178
7,GGACCCCA,-0.231
8,CTCTTTGC,0.0154
9,AACAGTTC,0.0419
10,GTTAACAA,0.296
11,ATAGGAGC,-0.0152
12,AATTTCGA,0.296
13,GAAGAGAA,-0.104
14,AAGACGGA,-0.128
15,TATCTGAA,0.238
16,CTCGACCC,-0.168
17,ATAGGCTA,0.0423
18,CCTAATTC,0.0847
19,TGCAGGAA,-0.0725
20,AAAAACCG,0.0602
21,GTAGATTA,0.229
22,CTAGACAC,-0.199
23,CGATGAAA,-0.0223
24,CAAATCAC,0.135
25,AGATGCCT,-0.192

row,Sequence,PBM 8-mer E-score
1,AGTAAACG,0.162
2,CATATGGG,-0.151
3,CCGATTAA,0.227
4,GCCGTCCC,-0.224
5,GTCGCACA,-0.00327
6,GCGCCAAA,0.104
7,CCTCGGAC,-0.169
8,ACTCGACG,-0.111
9,GCCTCCGC,-0.24
10,ACATCGTC,-0.0722
11,CATTGTCC,0.024
12,AATACTTC,0.238
13,CGTAACCC,-0.135
14,GCTCCGCC,-0.241
15,ACTGTTAG,0.0818
16,AGTCTACC,-0.177
17,AGGGACCA,-0.257
18,GCATAGAC,-0.148
19,AGAAACAT,0.251
20,ACGTTCGG,-0.0975
21,GCACGAGC,-0.272
22,ACAAGTGA,-0.00345
23,CGAAGTGA,-0.168
24,GACACCCC,-0.249
25,AGGACAGC,-0.196

row,Sequence,PBM 8-mer E-score
1,CACTAACC,0.0207
2,AGCGCGCC,-0.105
3,GCGTACTA,-0.0183
4,ATGAGCAA,0.00257
5,AAGACGAT,0.0161
6,CCAACGGA,-0.179
7,ACCGCGTA,-0.0828
8,AACGATCT,-0.158
9,ATACAGGA,0.138
10,GCTACTCA,-0.264
11,AGCGCACT,-0.175
12,ACCATCGG,-0.298
13,CTCAACTC,-0.139
14,CCGGTCAC,-0.249
15,AGAAACTC,-0.0284
16,AAAGGGAA,-0.0681
17,GGGGGAAA,-0.135
18,CTAAATGC,0.0441
19,CAAATACG,0.15
20,CGGGGTTC,-0.313
21,AACGAATG,0.0643
22,CAGTATAC,0.221
23,CGCCGAGC,-0.18
24,CCTTGTGC,-0.146
25,TGCCCCAA,-0.118

row,Sequence,PBM 8-mer E-score
1,CGTAGACA,-0.256
2,GAGGTTAC,-0.0113
3,GAAAATAC,0.134
4,GGAGCCCC,-0.366
5,CAAAGAGC,-0.111
6,CTTTTCAA,0.0875
7,ATTCAGCA,0.154
8,GGCGCCCA,-0.152
9,CTGGTGGA,-0.309
10,AAATCATG,-0.0303
11,CCGTAAAG,-0.061
12,TCCCCCGA,-0.189
13,CATGTCAC,0.08
14,ATACTGAG,0.167
15,AATCGATG,0.174
16,AAAGGTAC,-0.00283
17,ATGCGAAG,-0.0255
18,CCAAAATA,0.251
19,GATGGTTA,0.054
20,CAGACAAG,-0.0147
21,AAATCGAA,0.156
22,CCAGGAGG,-0.379
23,CAGGCCAG,-0.234
24,AGGTTGCA,-0.146
25,ATCCGAGG,-0.119

row,Sequence,PBM 8-mer E-score
1,CAACAGAA,-0.0613
2,ATTAGAAG,0.239
3,CTTAGTGA,-0.0659
4,AGACCATA,0.00218
5,CGAGCCGA,-0.276
6,ATGACTCC,-0.0824
7,CTCGGGCA,-0.195
8,AAGGGCCG,-0.17
9,GGTACCCA,-0.264
10,CCGCTACA,-0.13
11,ATTACCAA,0.223
12,AACATGCC,0.0493
13,GCAAGTCC,-0.0911
14,GACATGGA,-0.0841
15,CCTGGAGA,-0.164
16,GATGTGAC,-0.139
17,GATCGATC,0.0487
18,CACTCGAG,-0.162
19,CCTCCTCC,-0.302
20,CGGTGGAC,-0.18
21,GCCAGCCA,-0.194
22,ATGTACCA,0.189
23,CAACTACA,0.221
24,CCCTGGGA,-0.317
25,GACTTGAA,0.15

row,Sequence,PBM 8-mer E-score
1,CCCTGAAG,-0.186
2,AGAAACCC,-0.162
3,TAATGTAA,0.373
4,AGCAGCCA,-0.164
5,CAAGAAAA,-0.021
6,TACCCGCA,-0.0359
7,CAATGGAG,-0.228
8,AGTCACCG,-0.163
9,GCTTACAA,0.0244
10,AGCCTCGA,-0.127
11,AAAGGGAT,-0.00372
12,AGAAAGCC,-0.178
13,ACCCGCGG,-0.205
14,CTCTCCTC,-0.213
15,CGTTCTAC,-0.00845
16,ATATACTC,0.364
17,CACTATAA,0.312
18,AAGCCGGC,-0.227
19,AGCGTATA,0.177
20,GGAACCAC,-0.199
21,CATCCAGG,-0.18
22,CCAAGGTC,-0.214
